Among all 94,000 compounds or so, about 4,000 (4.3%) were called active. Inconclusive results, whose numbers are uncertain, are shown with a selection of clear calls. Calls come from the whole dose curve; as a rule, active = well fitted inhibition curve with a large enough effect; inconclusive = small, poorly fitted or top-dose-only effect; inactive = no such curve, though single readings can be large or run the other way. Where the call is inconclusive, the potency comes from a doubtful curve fit.
assay: Cytotoxic Profiling in NIH 3T3 Cell Line of Diverse Libraries Using Quantitative High-Throughput Screening; conditions: NIH 3T3 viability, CellTiter-Glo ATP luminescence, 48-72 h; activity change, negative = cytotoxicity: at 96.7 µM (top of the series) unless noted; series mostly up to 96.7 µM; note: nearly all actives have a fitted effect of over 55% in size
Procedure, shortened: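 First NIH 3T3 cells are plated at 400 cells/well; next compound is pinned in; then plates incubate 48 or 72 hr at 37 °C; finally CellTiter-Glo is added and luminescence read after 10 min.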
% is set by controls: 0 for no effect and ±100 for the full control effect; potency is the fitted concentration of half-maximal effect; tags give direction and shape of the fitted curve.

Row | SMILES | Potency | activity change, negative = cytotoxicity | outcome
1 | C#CCNC(=O)c1ccc2oc(-c3ccccn3)nc2c1 | inconclusive: 39.8 µM [inhibitor, partial curve, poor fit] | – | –
2 | O=C(CCOc1ccccc1)N[C@@H]1CCNC[C@H]1O | – | inactive: -21.7% | –
3 | CCOc1ccccc1NC(=O)N1CCC(c2nc(-c3cccn3C)no2)CC1 | inconclusive: 50.1 µM [inhibitor, partial curve, poor fit] | – | –
4 | CC(=O)NC[C@H]1CCN(Cc2cccc(Cl)c2F)C[C@H]1N(C)C | – | inactive: -2.95% | –
5 | O=C(NCC(=O)N1CCC(c2ccccc2)CC1)c1ccc(-c2cnc3ccccc3c2)cc1 | – | inactive: -12.4% | –
6 | O=C(C1CCCN(C(=O)C2CCCC2)C1)N1CCC(c2nc3ccncc3[nH]2)CC1 (centres undefined) | – | inactive: -15.4% | –
7 | COc1nccc(N2CCC(CC(=O)NCc3ccc(F)c(Cl)c3)CC2)n1 | inconclusive: 56.2 µM [inhibitor, partial curve, poor fit] | – | –
8 | Cc1ccc(NC(=O)Nc2ccccc2)c(=O)n1CC(=O)N1CCN(c2ccccc2)CC1 | – | – | inactive
9 | Cc1ccc(-c2nc(CNS(=O)(=O)C3CC3)[nH]c2-c2ccccn2)cc1 | inconclusive: 50.1 µM [inhibitor, partial curve, poor fit] | – | –
10 | COc1cccc(S(=O)(=O)N2CCCN(C)c3ccccc32)c1 | inconclusive: 50.1 µM [inhibitor, partial curve, poor fit] | – | –
11 | O=C(NCc1cccc(C(F)(F)F)c1)c1nc2sccn2c1-c1cccnc1 | inconclusive: 39.8 µM [inhibitor, partial curve, poor fit] | – | –
12 | Cc1cc(C(F)(F)F)nn1CC(=O)NCC1Cn2cccc2CN1Cc1ccccc1 (centres undefined) | inconclusive: 79.4 µM [inhibitor, single point] | – | –
13 | Cc1cc(F)ccc1OC1CN([S+](=O)([O-])c2cccc(C(F)(F)F)c2)C1 | inconclusive: 50.1 µM [inhibitor, partial curve, poor fit] | – | –
14 | COc1ccc(-c2noc(N(C)Cc3ccccc3)n2)cc1OC | inconclusive: 35.5 µM [inhibitor, partial curve, poor fit] | – | –
15 | CC(C)CNC(=O)C(NC(=O)c1ccccc1)C1CCN(C(=O)CC(C)C)CC1 (centres undefined) | – | inactive: -10.1% | –
16 | CC(=O)N1CCN(C(=O)C2CCCN2C(=O)c2cccc(-c3ccccn3)c2)CC1 (centres undefined) | – | inactive: -6.23% | –
17 | CCOC(=O)c1cccc(NC(=O)N2CC[C@@H](CC(=O)N(C)CCC#N)[C@@H](CC)C2)c1 | – | inactive: -29.7% [at 174 µM] | –
18 | O=C(O)CCn1ncc2cc(OCC3CCN(c4ncccn4)CC3)ccc21 | active: 50.1 µM | – | –
19 | COCCN1C(=O)N(CC(C)C)C(=O)C12CCN(Cc1cnn(-c3ccccc3OC)c1)CC2 | inconclusive: 17.8 µM [inhibitor, partial curve] | – | –

Source: PubChem BioAssay AID1345082 (National Center for Advancing Translational Sciences (NCATS), 2018)
